Patent US20190284293A1, “COMBINATION THERAPY WITH ANTI-CD73 ANTIBODIES” (BRISTOL-MYERS SQUIBB COMPANY, priority 2016, published 2019)

Columns and labels:
[1] = SEC-MALS, oligomeric state of CD73 mAbs; type: physicochemical
Description: The oligomeric state of CD73 mAbs were examined by size-exclusion chromatography coupled to an in-line multi-angle light scattering detector (SEC-MALS). Isocratic separations were performed on a Shodex PROTEIN KW-803 column connected to an Prominence Shimadzu UFLC in buffer containing 200 mM K2HPO4, 150 mM NaCl, pH 6.8, containing 0.02% Na azide (0.1 μm filtered) running at 0.5 mL/min. Samples were injected onto the column using a SIL-20AC Prominence Shimadzu autosampler, and data were obtained from three online detectors connected in series: a Prominence SPD-20AD diode array UV/vis spectrophotometer followed by a Wyatt miniDAWN™ TREOS Multi-Angle Light Scattering Detector then a Wyatt Optilab T-rEX Refractive Index Detector. Data (as shown in Table 15 below) were collected and analyzed using Astra (Wyatt) and Labsolutions (Shimadzu) software.

[2] = Differential scanning calorimetry (DSC), thermal stability; type: physicochemical; conditions: PBS pH 7.1
Description: The thermal stability of CD73 mAbs were determined using a MicroCal Capillary DSC instrument (GE Healthcare). Antibodies were analyzed at a concentrations of 0.5-0.75 mg/ml in PBS pH 7.1. To stabilize the DSC instrument baseline and obtain a consistent thermal history, multiple scans of buffer alone in both the sample and reference cell were recorded prior to sample analysis. Sample scans contained mAb in the sample cell and PBS pH 7.1 in the reference cell. All scans were run from 10-110° C. at a scan rate of 60°/hr using a 5 minute pre-cycle thermostat period and no post-cycle thermostat period. Data (as shown in Table 15 below) were analyzed using MicroCal Origin Cap DSC analysis software. The appropriate buffer-buffer blank scans were subtracted from the sample-buffer data, and the transition midpoint temperature (Tm) values were determined by fitting the data to a non-2-state model. Tm1, Tm2 and Tm3 are the Tms for different domains in the antibodies.

B1: 7A11: human anti-human CD73 monoclonal antibody, IgG1za, VK1 (antibody)
heavy: EVQLVESGGGLVQTGRSLRLSCAASGFTFDDYAMHWVRQAPGKGLEWVSDISWNSDIIGYADSVKGRFTISRDNAKNSLYLQMNSLRAEDTALYYCAKDIYGSGSSFFDYWGQGILVTVSS[human IgG1 constant region cut from this listing]
light: DIQMTQSPSSLSASVGDRVTITCRASQYISSWLAWYQQKPEKAPKSLIYAASSLQSGVPSRFSGSGSGTDFTLTISSLQPEDFATYYCQQYHSYPPTFGQGTRLEIKRTVAAPSVFIFPPSDEQLKSGTASVVCLLNNFYPREAKVQWKVDNALQSGNSQESVTEQDSKDSTYSLSSTLTLSKADYEKHKVYACEVTHQGLSSPVTKSFNRGEC
[1]
  SEC % HMW: 0.5%
  SEC % LMW: 0.5%
  SEC % Monomer: 98.5%
[2]
  DSC Tm1 (° C.): 64.8 °C
  DSC Tm2 (° C.): 70.2 °C
  DSC Tm3 (° C.): 82.8 °C
  DSC Tonset (° C.): 56.0 °C
